The term GI50 denotes the concentration at which growth is held to half of that of the control.

This is an account of results in patent US20260191982A1, “ANTI-BASAL CELL ADHESION MOLECULE ANTIBODY-DRUG CONJUGATE” (Genome & Company, Inc., priority 2022, published 2026).

In test [1] the test system is BCAM positive A431 xenograft model. As to the kind of experiment: In vivo anti-tumor activity in A431 xenograft model. Also noted: species or system BALB/c nude mouse. The note with it: for mean tumor growth rate (vehicle control = 100%): day 14. The method, then: In vivo anti-tumor activity of Ab1-Linker-AF was evaluated in BCAM positive A431 xenograft model. A431 cells (KCLB, Korea) were cultured in RPMI supplemented with 10% FBS and 1% penicillin/streptomycin at 37° C. and 5% CO2. To establish a tumor model, 5×10^6 A431 cells were subcutaneously injected into the right flank of a 6-week-old female BALB/c nude mouse (Orientbio, Korea). When tumors reached 75~150 mm^3, mice were randomly assigned to the following treatment groups (n=8/group): PBS (vehicle), HG4K IgG4-Linker-AF (20 mg/kg), Ab1 (20 mg/kg), and Ab1-Linker-AF (5, 10, and 20 mg/kg). Each control or test article was given intravenously once a week for two weeks. Tumor diameters were measured 2 to 3 times a week and the tumor volume was calculated with the following formula: [Tumor volume=Length×Width^2×0.5]. […] On day 14 after starting treatment, the mean tumor growth rate of the vehicle control group was set as 100% and compared with other control groups (20 mg/kg of HG4K IgG4-Linker-AF and 20 mg/kg of Ab1) and Ab1-Linker-AF (5, 10, and 20 mg/kg) treatment groups.

For another test, the system named is SK-BR-3. Description: Cytotoxic activity, CellTiter-Glo assay (Example 3.1). Format: cell-based, human. To be noted: 72 hours; Table 4.1 Ab1-Linker-DM1 / Ab1-Linker-AF sections. The method, then:
(§1) In vitro cytotoxic activity of Ab1-Linker-DM1, Ab1-Linker-AF and Ab2-Linker-AF was assessed in several human cancer cell lines (SK-BR-3, T47D, MCF-7, A431 or Huh7) expressing different levels of BCAM by CellTiter-Glo® assay (Promega). Cells were seeded into 96 well clear flat bottom plates (5,000 cells/well) in RPMI-1640 supplemented with 10% FBS and 1% penicillin/streptomycin and kept at 37° C. and 5% CO 2. After overnight incubation, cells were treated with different concentrations of Ab1-Linker-DM1, Ab1-Linker-AF or negative controls for each test article (HG4K IgG4-Linker-DM1 for Ab1-Linker-DM1 and HG4K IgG4-Linker-AF for Ab1-Linker-AF and Ab2-Linker-AF, respectively). After 72 hours, CellTiter-Glo® reagent was added to each well and luminescence was measured using Synergy H1 (BioTek, Winooski, VT). All experiments were performed in triplicate. The percentage of viable cells was determined using the following formula: (T−D0)/(V−D0)×100 [T=luminescence of drug treated cells, V=luminescence of PBS (vehicle) treated cells, D0=luminescence of untreated cells on day 0]. All data were analyzed using GraphPad Prism software (GraphPad Software, San Diego, CA). […] See FIGS. 1A (for Ab1-Linker-DM1) and 1B (for Ab1-Linker-AF). […] Next, the cytotoxicity of Ab2-Linker-AF was examined in SK-BR3 and A431 cells.
(In general: Cellular ATP, detected with luciferase, serves as a proxy for viable cell number.)

The next test has as its system Huh7. The test is described as above. It counts as cell-based, human. To be noted: 72 hours. The procedure:
as §1

Another test relates to A431. Described as above. It counts as cell-based, human. To be noted: 72 hours; Table 4.1 Ab1-Linker-DM1 / Ab1-Linker-AF sections. The method, then:
as §1

The subject of another test is MCF-7. Described as above. It counts as cell-based, human. To be noted: 72 hours. The method, then: as §1
The test system of a further test is T47D. The description is as above. Format: cell-based, human. The note with it: 72 hours. The procedure: as §1

B1: Ab1-Linker-AF (conjugate)
heavy: EVQLVQSGGGLVKPGGSLRLSCAASGFTFSDYYMSWIRQAPGKGLEWVSYTSSSGSTIYYADSVKGRFTISRDNAKNSLYLQMNSLRAEDTAVYYCARDITAFDIWGQGTMVTVSSASTKGPSVFPLAPCSRSTSESTAALGCLVKDYFPEPVTVSWNSGALTSGVHTFPAVLQSSGLYSLSSVVTVPSSSLGTKTYTCNVDHKPSNTKVDKRV[human IgG4 Fc with S228P (EU numbers) left out here]
light: LPVLTQPPSASGSPGQSVTISCTGTSSDVGGYNYVSWYQQHPGKAPKLMIYEVNKRPSGVPDRFSGSKSGNTASLTVSGLQAEDEADYYCCSYAGSNNYVFGTGTKVTVLGQPKAAPSVTLFPPSSEELQANKATLVCLISDFYPGAVTVAWKADSSPVKAGVETTTPSKQSNNKYAASSYLSLTPEQWKSHRSYSCQVTHEGSTVEKTVAPTECS
modifications: non-natural residues
Regarding B1, the “mean tumor growth rate (vehicle control = 100%)” value in test [1] (5 mg/kg i.v. once a week for two weeks) worked out at 34.2%; in test [1] (10 mg/kg i.v. once a week for two weeks) it was 11.4%; in test [1] (20 mg/kg i.v. once a week for two weeks), 7.3%. The A431 tumor growth result in test [1] (5, 10 and 20 mg/kg intravenously once a week for two weeks) is listed as “significantly inhibited the A431 tumor growth in a dose dependent manner”. Further, the concentration for 50% growth inhibition (GI50) came to 0.9 nM in the test on SK-BR-3; 193 nM in the test with Huh7; 9.1 nM in the test with A431; 59 nM in the test with MCF-7; 31 nM with T47D.
